Binding data for three substances are collected here from article PMC11476297.

Protein sequences, listed by entry. Tags and fused reporters are not part of them. Lines headed by an entry give the natural chain unless they say otherwise; changes in a name come on top. Chains listed by the source or under a name are the forms on record and can include a tag or linker. Residues count along the entry.
UniProt P25788: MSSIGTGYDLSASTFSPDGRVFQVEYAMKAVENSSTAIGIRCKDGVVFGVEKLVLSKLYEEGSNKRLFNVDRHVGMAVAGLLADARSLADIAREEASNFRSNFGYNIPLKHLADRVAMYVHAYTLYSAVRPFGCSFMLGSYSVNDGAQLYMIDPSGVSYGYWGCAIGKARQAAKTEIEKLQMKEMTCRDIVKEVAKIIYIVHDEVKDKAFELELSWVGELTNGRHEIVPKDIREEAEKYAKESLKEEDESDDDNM
PSMA3 Trapper (PSMA3 186-255) fused to 3xHA tag and Luc2: residues 186-255 of P25788
UniProt P38936: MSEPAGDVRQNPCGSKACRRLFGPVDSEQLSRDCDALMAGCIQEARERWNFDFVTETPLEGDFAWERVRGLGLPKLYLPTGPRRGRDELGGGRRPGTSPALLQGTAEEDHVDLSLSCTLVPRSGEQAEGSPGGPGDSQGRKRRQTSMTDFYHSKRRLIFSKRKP

In test [1] the target is PSMA3 Trapper (PSMA3 186-255) fused to 3xHA tag and Luc2 (UniProt P25788). Briefly: split reporter; split Gaussia luciferase complementation; PSMA3 or Trapper on Luc2, p21 or its fragments on Luc1; HEK293 cells co-transfected, harvested after 48 h, luminescence read in 0.1% NP-40 lysates; signal as fold over control plasmids.
In test [2] the target is full-length PSMA3 fused to 3xHA tag and Luc2 (UniProt P25788). The test is described as above.

Results are given in words; binding and its absence hold for the method and conditions named. In cells and extracts the contact can be indirect. Some binding calls cover weakened binding; strength is not graded here.

As for “6xmyc p21 fused to Luc1, full-length p21 (2-164) (from UniProt P38936 2-164)”, the binding entry in test [1] and in test [2] was “binds” in each case.

Turning to “p21 C fragment (131-164 aa) fused to 6xmyc and Luc1 (from UniProt P38936 131-164) (domain or fragment)”, the binding result in test [1] and in test [2] was “binds” throughout.

For “truncated p21 C region deleted mutant (2-131) fused to 6xmyc and Luc1 (from UniProt P38936 2-131) (domain or fragment)”, the binding result in test [1] and in test [2] was “no binding” each time.
